Source: PubChem BioAssay AID1963576 (National Center for Advancing Translational Sciences (NCATS), 2024)
Among all 46,000 compounds or so, about 60 (0.1%) were called active. Another 3% or so got no clear call; they are omitted. Calls come from the whole dose curve; as a rule, active = well fitted inhibition curve with a large enough effect; inconclusive = small, poorly fitted or top-dose-only effect; inactive = no such curve, though single readings can be large or run the other way. This is one part of the list.

Experiment: Primary qHTS assay for Inhibitors of ovarian cancer metastasis using an organotypic tumor microenvironment (TME) model.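 For activity change, negative = inhibition: plate controls were DMSO wells for no effect and tomatine positive control wells for full effect.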 Note: nearly all actives have a fitted effect of over 65% in size.
Details: SKOV3ip1-GFP adhesion/invasion on 3D omental model, fluorescence; series mostly up to 45.8 µM; activity change, negative = inhibition: at the top concentration
Outline: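 Adhesion/invasion was scored as fixed GFP-labeled SKOV3ip1 cell counts (488/509 nm), normalized to DMSO and tomatine controls. Cancer cells in serum-free medium, with four compound doses (0.36-46 umol/L), sat 2 hr at RT then 16 hr at 37 C on a 48 hr fibroblast/mesothelial/ECM culture.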

SMILES	activity change, negative = inhibition	outcome
CCOC(=O)CC(NC(=O)Cn1nnc(-c2ccc(C(F)(F)F)cc2)n1)c1ccc(C)cc1 (configuration not stated)	inactive: -2.91%	
O=C(CC1Oc2ccc(Cl)cc2NC1=O)NCc1ccccc1 (configuration not stated)	inactive: -7.3%	
CCN(CC)S(=O)(=O)c1ccc2c(c1)N(CC(=O)Nc1ccc(F)cc1)C(=O)CO2		inactive
Cc1ccc(S(=O)(=O)N2CCCc3cc(NC(=O)c4ccccc4Cl)ccc32)cc1	inactive: -6.75%	
COc1ccc(CCNC(=O)CCCCCn2c(SCC(N)=O)nc3cc4c(cc3c2=O)OCO4)cc1OC	inactive: -8.44%	
Cc1ccc(C)c(N(C)C(=O)C2CCN(c3ncnc4c3nc3n4CCCCC3)CC2)c1	inactive: 6.74%	
CCN(CC)S(=O)(=O)c1nnc(NC(=O)COc2cccc(C)c2)s1	inactive: -3.9%	
O=C(Nc1c(C(=O)c2ccc(F)cc2)oc2ccccc12)c1cc(-c2ccccc2)on1	inactive: -4.08%	
COc1ccc(NC(=O)N(Cc2nnc3n2CCCCC3)c2ccc(OC)c(Cl)c2)cc1	inactive: 10%	
Cn1cnc(S(=O)(=O)N2CCCC(C(=O)Nc3cccc(C#N)c3)C2)c1 (configuration not stated)		inactive
CCc1ccc(S(=O)(=O)c2c(C(=O)c3ccc(C)c(C)c3)cnc3ccccc23)cc1	inactive: -0.492%	
CCOc1ccc(CNC(=O)c2ccc3nc(CC)c(CC)nc3c2)cc1OC	inactive: -27.5%	
COc1cccc(N2CCN(c3ccc4nnc(CCC(=O)O)n4n3)CC2)c1		inactive
COCCNC(=O)CSc1nc2ccccc2nc1Cc1ccc(C)cc1		inactive
CCn1c(=O)cc(OCC(=O)Nc2cc(OC)c(OC)c(OC)c2)c2ccccc21	inactive: -4.62%	
COc1cccc(Cc2nc3ccccc3nc2SCC(=O)Nc2ccccc2F)c1		inactive
CN(C)c1ccc(CNC(=O)c2ccc(NC(=O)c3nsc4ccccc34)cc2)cc1	inactive: 1.95%	
O=C(Cn1c(=O)n(-c2ccccc2)c(=O)c2c3c(sc21)CCCC3)Nc1cccc(F)c1		inactive
CCC12CN3CC(C)(CN(C1)C3c1c(C)n(C)c3ccccc13)C2=O (configuration not stated)	inactive: -5.11%	
CC(C)C1N=C2c3ccccc3N=C(SCC(=O)NCc3ccc(F)cc3)N2C1=O (configuration not stated)	inactive: 4.94%	
Cc1cccc(NC(=O)Cn2c(=O)n(CCc3ccccc3)c(=O)c3sc4ccccc4c32)c1	inactive: 3.09%	

SMILES	activity change, negative = inhibition	outcome
CCC1(c2ccccc2)C(=O)NCNC1=O	inactive: 2.48%	
Cc1ccc(Nc2cc(-c3cccc(N4C(=O)c5ccccc5C4=O)c3)ncn2)cc1NS(C)(=O)=O	inactive: -12%	
Cc1cccc(CNC(=O)c2ccc3nc(-c4ccccc4)c(-c4ccccc4)nc3c2)c1	inactive: -2.99%	
Cc1c(C(=O)NCc2ccccc2Cl)cccc1-n1cnc2cccnc21	inactive: 19.2%	
Cc1cccc(C)c1OCc1nc2c3cnn(-c4ccccc4Br)c3ncn2n1	inactive: -7.62%	
COc1cc(NC(=O)c2cc(C3CC3)nc3c2c(C)nn3-c2ccc(C)cc2)cc(OC)c1	inactive: -16%	
Nc1c(-c2nc(-c3ccc(Cl)cc3)no2)nnn1-c1ccc(C(F)(F)F)c(Cl)c1	inactive: 8.69%	
CCOC(=O)Cn1c(=O)n(C2CCCCC2)c2nc(-c3ccccc3Cl)nc(C(N)=O)c21	inactive: -3.35%	
O=C(CSc1nc2c([nH]c3ccccc32)c(=O)n1-c1ccc(F)cc1)N1CCCc2ccccc21	inactive: -7.05%	
CCC(CC)C(=O)Nc1nnc2n1CCS2	inactive: 10.4%	
COC(=O)c1ccc(NC(=O)CCNS(=O)(=O)c2cccc3nsnc23)cc1		inactive
O=C(NC1CCCCC1)c1cc(Nc2ccccc2)nc2ccccc12		inactive
COc1ccc(-c2c(C)nn3c(-c4ccccc4)cc(-c4ccccc4)nc23)cc1OC	inactive: -0.725%	
COc1ccc(CCN2C(=O)c3[nH]nc(-c4ccccc4O)c3C2c2ccc(O)c(OC)c2)cc1 (configuration not stated)	inactive: 2.58%	
CCOC(=O)CC(NC(=O)c1cc2c(=O)n3cccc(C)c3nc2s1)c1ccc(OCC(C)C)c(OC)c1 (configuration not stated)	inactive: 2.44%	
COc1ccc2c(c1)c1c(c(=O)n(-c3ccc(F)c(Cl)c3)c(=O)n1Cc1ccccc1F)n2C	inactive: -4.44%	
CCCCNC(=O)c1ccc2c(c1)NC(=O)C(C(C)C)N2 (configuration not stated)		inactive
COC(=O)c1c(-c2ccc(Cl)cc2)noc1N1CCN(c2ccccc2F)CC1	inactive: 3.03%	
CCOC(=O)C1=C(CN(CC)Cc2ccccc2)NC(=O)NC1c1ccc(OC)cc1 (configuration not stated)	inactive: 10%	
CCOc1cccc(-c2nc3ccccc3c(=O)o2)c1		inactive
O=C1CN(C(=O)c2cccc(Br)c2)C(c2ccccc2)c2cc(Cl)ccc2N1 (configuration not stated)	inactive: -11%	

SMILES	activity change, negative = inhibition	outcome
N#Cc1c(-n2ncnc2-c2cccc(Cl)c2)sc2c1CCCCC2	inactive: -6.93%	
COc1ccccc1NC(=O)C(=O)c1cc(C)n(-c2cc(C)cc(C)c2)c1C	inactive: -13.7%	
COCCNS(=O)(=O)c1cc(-c2nn3c(C)nnc3c3ccccc23)ccc1C		inactive
Cc1ccc(NC(=O)N2CCN(C(=O)c3nsc4ccccc34)CC2)cc1C		inactive
CCS(=O)(=O)NCCc1sc2nc(-c3ccc(OC)cc3)nn2c1C		inactive
O=C(CNS(=O)(=O)c1ccc(Br)s1)N1CCN(c2ccc(F)cc2)CC1	inactive: -9.94%	
COc1ccc(Cl)cc1NC(=O)C(=O)NCc1ccc(Cl)cc1	inactive: 1.56%	
CC(C)(C)c1ccc(C(=O)NC2=NC(c3cccc(F)c3)CC(=O)N2)cc1 (configuration not stated)	inactive: 2.02%	
Cc1cc(C)c2oc(C(=O)NCCc3ccc(S(N)(=O)=O)cc3)cc(=O)c2c1	inactive: -3.06%	
Cc1cccn2c(=O)cc(COc3ccc(NC(=O)COc4ccc(F)cc4)cc3)nc12	inactive: 6.64%	
COc1ccc2c(c1)c1c(c(=O)n(Cc3ccccc3)c(=O)n1CC(=O)Nc1ccccc1F)n2C	inactive: 1.38%	
Cc1ccc(OC(=O)CSc2nnc(-c3ccc4c(c3)OCO4)o2)c(C)c1	inactive: 30%	
CCOC(=O)c1cnc(NCc2ccc(OC)cc2OC)c2ccccc12		inactive
CCOc1ccccc1NC(=O)N1CC(C)Oc2ccc(Cl)cc21 (configuration not stated)		inactive
COc1cccc(-c2nc3c(c(SCC(=O)Nc4cccc(C)c4C)n2)Cc2c(CO)cnc(C)c2O3)c1	inactive: 10.4%	
Cc1ccc(C(=O)c2sc(Nc3ccc(F)cc3)c(C#N)c2N)cc1	inactive: -3.18%	
COc1cccc(NC(=O)CN2C=NS(=O)(=O)c3ccccc32)c1	inactive: 2.98%	
Cc1cccc(CCn2c(=O)c3ccccc3n(Cc3ccccc3C)c2=O)c1		inactive
CCOC(=O)C1CCN(c2cc3c(cc2NC(=O)c2ccccc2Cl)n(C)c(=O)n3C)CC1		inactive
O=C(O)CCc1ccc(-c2ccc(Br)cc2)n1-c1ccccc1O	inactive: -18.8%	
